Where “and” joins values, the source holds several entries; their conditions need not be identical. Equal entries are not always repeated. In all, about 110,000 compounds went through this assay and about 230 (0.21%) showed an effect of 50% or more. The list shows a part of the results.
Each compound was assayed against DPAP1 (Plasmodium falciparum, UniProt Q8IIJ9) (assay: primary screen, percent inhibition; read by cleavage of a fluorogenic dipeptide substrate; higher = more effect of the substance).
Set-up: species or system P. falciparum D10 trophozoite lysates; single well
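Note: 30 min substrate incubation versus DMSO and 10 µM JCP410 controls.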

Chain of DPAP1 (Q8IIJ9 whole entry, looked up): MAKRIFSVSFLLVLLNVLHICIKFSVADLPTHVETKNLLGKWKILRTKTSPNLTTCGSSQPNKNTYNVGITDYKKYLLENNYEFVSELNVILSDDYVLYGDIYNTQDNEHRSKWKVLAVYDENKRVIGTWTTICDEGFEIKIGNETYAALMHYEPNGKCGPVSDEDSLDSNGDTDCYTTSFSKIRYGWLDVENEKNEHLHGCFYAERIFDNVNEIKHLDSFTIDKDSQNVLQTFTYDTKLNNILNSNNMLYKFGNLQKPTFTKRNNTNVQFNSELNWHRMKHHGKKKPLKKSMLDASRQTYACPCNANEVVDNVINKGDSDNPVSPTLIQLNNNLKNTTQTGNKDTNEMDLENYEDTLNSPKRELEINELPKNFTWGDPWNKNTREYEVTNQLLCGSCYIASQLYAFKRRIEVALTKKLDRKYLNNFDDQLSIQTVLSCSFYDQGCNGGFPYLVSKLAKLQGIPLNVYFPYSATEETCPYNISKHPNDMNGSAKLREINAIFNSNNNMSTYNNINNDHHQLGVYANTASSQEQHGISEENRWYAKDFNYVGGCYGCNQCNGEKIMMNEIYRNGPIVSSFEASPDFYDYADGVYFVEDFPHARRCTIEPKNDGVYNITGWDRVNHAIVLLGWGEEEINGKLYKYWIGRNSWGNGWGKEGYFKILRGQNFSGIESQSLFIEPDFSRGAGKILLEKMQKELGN

Structure (SMILES) | % Inhibition @ 10 uM
COc1ccc(CNC(=O)c2nc3ncccn3n2)cc1 | 1.72%
Oc1c2nc3ccccc3c-2ncn1CCCN1CCN(C2CCCCC2)CC1 | 3.24%
Clc1ccc(CCNc2ncnc3c2nc2n3CCCCC2)cc1 | -1.6%
O=C(O)c1cccc(COc2ccccc2Cl)c1 | -1.96%
Cc1cc(NC(=O)CN2C(=O)c3cccc4cccc2c34)ccc1Br | -5.23%
CC(=O)CCc1c(S)nc2ccccc2c1C | -3.77%
Oc1nc(/C=C/c2ccccc2C(F)(F)F)cc(C(F)(F)F)n1 | -2.48%
Cc1ccc(C(C)C)c(OCC(=O)Nc2cccc3cccnc23)c1 | 5.15%
O=C(O)CCC(=O)NCc1ccc(F)cc1 | -6.78%
COc1ccccc1NC(=O)C1=C(C)NC(=O)NC1c1cccc(OC)c1OC (stereo not drawn) | -0.999%
COc1ccc(CCNC(=O)CSc2nc3c(sc4ccccc43)c(=O)n2CCO)cc1OC | 4.02%
CCOc1ccc(/N=C2\SC(C(=O)Nc3ccc(F)cc3)CC(=O)N2C)cc1 (stereo not drawn) | -2.83%
COC(=O)c1ccc(-c2nc(-c3ccc(-n4cccc4)cc3)no2)cc1 | -8.42%
Cc1cc([N+](=O)[O-])ccc1NC(=O)/C=C\C(=O)O | -4.49%
CN(C)c1ccc(C2C(C#N)=C(N)Oc3[nH]nc(-c4cccc5ccccc45)c32)cc1 (stereo not drawn) | 2.46%
Cc1cc2c(N)c(C(N)=O)sc2nc1-c1ccc(F)cc1 | -1.6%
CCOc1ccccc1C(=O)Nc1nc(C)cs1 | -8.36%
CN(CCC(N)=O)Cc1ccccc1 | -3.77%
CO/C(O)=C1\C(C)=NC2=C(C(=O)CC(C)(C)C2)C1c1ccc(OCc2ccccc2)c(OC)c1 (stereo not drawn) | 2.45%
CN(C)c1ccc2c(c1)OC(N)=C(C#N)C2c1ccc(F)cc1 (stereo not drawn) | 2.38%
COc1ccccc1NCN1C(=O)S/C(=C\c2cccc(F)c2)C1=O | -1.32%
Cc1ccc(NC(=O)CCC(=O)c2ccccc2)cc1 | 3.86%

Structure (SMILES) | % Inhibition @ 10 uM
c1cnc(N2CCN(Cc3ccc4ccccc4c3)CC2)nc1 | 0.708%
CCOC(=O)c1c(N)sc(C(=O)N2CCCC(C(N)=O)C2)c1C (stereo not drawn) | -3.09%
O=S(=O)(NCc1csc(-c2cccnc2)n1)c1ccc2c(c1)CCCC2 | -0.72%
CCOC(=O)c1noc2ncnc(NC(C)CC34CC5CC(CC(C5)C3)C4)c12 (stereo not drawn) | 3.33%
O=C(NC1CCCc2ccccc21)c1cc(-c2ccccc2)[nH]n1 (stereo not drawn) | 5.45%
CN(C)CCCN(CCCN(C)C)Cc1ccc(F)c(Br)c1 | -2.21%
CC(C)CC(C(=O)NCC1CCN(Cc2cccc(Cl)c2)CC1)N1Cc2ccccc2C1=O (stereo not drawn) | -1.58%
Cc1ccccc1Cn1ccn(Cc2ccccc2)c(=O)c1=O | -7.32%
COc1ccc2oc(=O)cc(CN3CCN(C4CCCCC4)CC3)c2c1 | 3.27%
Clc1cccc(CN2CCOCC2)c1 | 1.62%
Cc1cc(NC(=O)Nc2ccc(Cl)cc2)ccc1Br | 0.635%
O=C(Nc1cccnc1Cl)c1ccc(Oc2ccccc2)cc1 | -3.39%
O=C(COc1ccc(Cl)cc1Cl)Nc1cccc(Cl)c1Cl | 1.55%
FC(F)(F)C(Oc1nc(N2CCCCC2)nc(N2CCOCC2)n1)C(F)(F)F | 0.00178%
COc1cc(OC)cc(C2C(C#N)=C(N)Oc3[nH]nc(C(C)(C)C)c32)c1 (stereo not drawn) | 1.08%
CC1CCCC(NCc2ccc3c(c2)OCO3)C1 (stereo not drawn) | -2.02%
O=C(Cn1c2c(c(-c3ccccc3Cl)cc1=O)CCC2)NCC1CCCO1 (stereo not drawn) | -4.53%
Cc1ccc(C(=O)NCC(c2ccco2)N2CCCC2)cc1 (stereo not drawn) | 17.2%
CC1(C)CC(=O)C2=C(C1)N(c1cccnc1Cl)C(N)=C(C#N)C2c1ccc(Br)s1 (stereo not drawn) | -2.75%
Cc1ccc(S(=O)(=O)Cc2nc(-c3ccc(C(=O)NCc4ccc(F)cc4)cc3)oc2C)cc1 | -2.56%
COCc1[nH]nc2c1C(c1cc(OC)cc(OC)c1)C(C#N)=C(N)O2 (stereo not drawn) | 4.11%
c1cncc(CN2CN(c3nc4ccccc4s3)CN(c3nc4ccccc4s3)C2)c1 | -2.91%

Structure (SMILES) | % Inhibition @ 10 uM
Fc1ccc(N2CC(c3ccccc3)C(c3cccs3)=N2)c(F)c1 (stereo not drawn) | -1.05%
CC1=NCCN1S(=O)(=O)c1cc(Cl)ccc1Cl | 7.26%
Cc1c(C)n(Cc2ccccc2)c2ccc(C(=O)OCCN(C)C)cc12 | -6.83% and 0.605%
O=C(NCCCN1CCOCC1)c1ccco1 | 0.146%
S=C1NCN(Cc2ccccc2)CN1 | -1.26%
Cc1ccc(C(=O)Nc2nc3ccc(S(C)(=O)=O)cc3s2)o1 | 1.57%
CC(C)C1=CCC(C)/C(=C/c2ccc(F)cc2)C1=O (stereo not drawn) | 1.12%
CCOc1ccccc1CNc1nc2nc(C)c(Cl)c(C)n2n1 | 1%
COc1cc(OC)c(/C=C2/SC(=O)N(C(C)C)C2=O)c(OC)c1 | 0.163%
Cc1ccc(-c2onc(C)c2C)cc1S(=O)(=O)NCCC1=CCCCC1 | -1.52%
C=CCS(=O)(=O)Nc1ccccc1 | 0.132%
CCC(C)NC(=O)C1c2cc(OC)c(OC)cc2C(=O)N2CCCCC12 (stereo not drawn) | -1.51%
CCOC(=O)N1CCN(c2c(NC(C)CC)c(=O)c2=O)CC1 (stereo not drawn) | -1.44%
Cc1nc2ccc(C(=O)N3CCN(c4ccccn4)CC3)cc2s1 | -1.27%
Cc1nn(CC(=O)NCc2ccccn2)c(=O)c2nn(-c3ccccc3)c(C)c12 | 3.97%
NNC(=O)CNc1ccc(Cl)cc1Br | -4.4%
N#CCc1ccc(NC(=O)COc2ccc(F)cc2F)cc1 | -1.75%
CSc1ccc(C2C(C#N)=C(N)Oc3[nH]nc(-c4ccccc4)c32)cc1 (stereo not drawn) | -1.06%
O=[N+]([O-])c1ccccc1S(=O)(=O)Nc1ccccn1 | -2.66%
N#CCNC(=O)[C@H](Cc1ccc(Cl)cc1)NC(=O)c1ccccc1 | -1.83%
CCOC(=O)N1CCN(C(c2ccccn2)c2cc(Cl)c3cccnc3c2O)CC1 (stereo not drawn) | 40.9%
CCCCCC(=O)Nc1sc(C)c(C)c1C#N | 0.385%

Reference: publication PMC6919601, “Identification of Plasmodium dipeptidyl aminopeptidase allosteric inhibitors by high throughput screening” (PLoS ONE, 2019)
